This is one part of the list. Antibody binding of pooled human sera (four to six donors per pool; dilution not stated) to peptides of the Trypanosoma cruzi antigen TSSA on microarrays. Quantile-normalised fluorescence in arbitrary units, mean of duplicate arrays; higher = more binding. No active / inactive call. The uninfected pools are read here as the healthy donors of the same country. The strongest signals lie near the top of the scale (about 60,000).
Tests used:
Assay in all cases: antibody binding signal (normalised fluorescence) (arbitrary fluorescence units); higher = stronger serum antibody binding to peptide
[1] = test system: pooled sera of chronic Chagas disease patients, Argentina
Method: (§1)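 Microarray of 15-residue peptides over residues 30-55 of Trypanosoma cruzi TSSAII, each with 1 to 10 substitutions at naturally variable positions, probed with one serum pool per country.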

[2] = test system: pooled sera of chronic Chagas disease patients, Bolivia
Method: as §1

[3] = test system: pooled sera of chronic Chagas disease patients, Brazil
Method: as §1

[4] = test system: pooled sera of chronic Chagas disease patients, Colombia
Method: as §1

[5] = test system: pooled sera of chronic Chagas disease patients, Mexico
Method: as §1

[6] = test system: pooled sera of chronic Chagas disease patients, USA
Method: as §1

[7] = test system: pooled sera of uninfected people, Argentina
Method: as §1

[8] = test system: pooled sera of uninfected people, Bolivia
Method: as §1

[9] = test system: pooled sera of uninfected people, Brazil
Method: as §1

[10] = test system: pooled sera of uninfected people, Colombia
Method: as §1

[11] = test system: pooled sera of uninfected people, Mexico
Method: as §1

[12] = test system: pooled sera of uninfected people, USA
Method: as §1

Sequence | antibody binding signal [1] | antibody binding signal [2] | antibody binding signal [3] | antibody binding signal [4] | antibody binding signal [5] | antibody binding signal [6] | antibody binding signal [7] | antibody binding signal [8] | antibody binding signal [9] | antibody binding signal [10] | antibody binding signal [11] | antibody binding signal [12]
GKDNKAAAGGTPSPS | 290 | 213 | 222 | 1460 | 819 | 1090 | 138 | 320 | 656 | 179 | 85.6 | 101
KDKKPAAGEAPSQSG | 239 | 1230 | 8550 | 152 | 156 | 11300 | 103 | 89.7 | 194 | 81 | 83.7 | 92.8
KEKKTATGGAPSPPG | 421 | 245 | 230 | 1280 | 274 | 707 | 237 | 101 | 120 | 112 | 117 | 108
TEKKTAAGGAPSQPG | 648 | 999 | 1650 | 9320 | 791 | 1470 | 221 | 168 | 214 | 295 | 446 | 293
GKDKKAATGGAPSPS | 522 | 182 | 201 | 1030 | 996 | 886 | 215 | 105 | 131 | 213 | 78.6 | 98.9
GTDNKTATGGAPSPP | 490 | 357 | 23300 | 669 | 441 | 852 | 373 | 526 | 1550 | 206 | 188 | 209
GKENKAAAGGTPSPP | 884 | 340 | 2640 | 4470 | 1650 | 7210 | 254 | 74.1 | 300 | 188 | 96 | 107
TPPSGTENKTATGGA | 54100 | 46700 | 52300 | 311 | 5320 | 20200 | 3350 | 555 | 372 | 517 | 463 | 634
TDNKAATGEAPSPPG | 23100 | 40200 | 37200 | 217 | 206 | 27400 | 152 | 304 | 190 | 112 | 136 | 89.2
KPATGGTPSPPGASS | 534 | 362 | 266 | 274 | 365 | 217 | 227 | 643 | 232 | 259 | 160 | 207
ENKPAAGETPSPSGA | 473 | 1290 | 16100 | 426 | 347 | 4440 | 205 | 402 | 194 | 119 | 154 | 447
STPPSGKENKTAAGG | 29500 | 3530 | 13600 | 719 | 4850 | 4540 | 2640 | 1180 | 196 | 619 | 334 | 357
ENKTAAGGAPSQPGA | 344 | 4530 | 8440 | 5280 | 460 | 1670 | 322 | 255 | 543 | 270 | 596 | 278
ENKTAAGETPSPPGA | 195 | 875 | 865 | 256 | 314 | 2310 | 170 | 220 | 214 | 124 | 177 | 376
SGTDNKAAAGETPSQ | 296 | 383 | 41200 | 405 | 200 | 226 | 87.1 | 642 | 1250 | 136 | 138 | 171
NKTAAGGTPSQSGAS | 1730 | 228 | 1950 | 6150 | 1380 | 1580 | 911 | 965 | 1410 | 439 | 2290 | 1040
ENKAAAGETPSPPGA | 189 | 605 | 13200 | 288 | 232 | 3080 | 106 | 214 | 109 | 86.4 | 114 | 348
TPPSGKENKPAAGET | 16600 | 35300 | 10800 | 428 | 4520 | 13700 | 2980 | 2650 | 298 | 993 | 337 | 504
TDKKTAAGGAPSPSG | 851 | 466 | 324 | 7650 | 873 | 796 | 241 | 112 | 219 | 208 | 283 | 168
ISTPPSGTEKKAATG | 35300 | 2160 | 29800 | 484 | 20900 | 4860 | 1000 | 364 | 149 | 552 | 111 | 174
SGTDKKAAAGGTPSQ | 431 | 547 | 1570 | 13000 | 981 | 1850 | 213 | 172 | 1870 | 237 | 1140 | 196
TPPSGKEKKTATGEA | 7810 | 341 | 651 | 464 | 16200 | 1080 | 385 | 745 | 130 | 342 | 181 | 152
KDNKPATGETPSPPG | 39200 | 26100 | 37000 | 277 | 210 | 28400 | 315 | 556 | 266 | 268 | 1620 | 1700
PPSGKDNKPAAGGTP | 1030 | 411 | 16700 | 871 | 14700 | 12000 | 497 | 1040 | 400 | 402 | 181 | 255
SSTPPSGTEKKAAAG | 42000 | 14900 | 35800 | 861 | 15800 | 5360 | 1180 | 441 | 174 | 173 | 151 | 253

Sequence | antibody binding signal [1] | antibody binding signal [2] | antibody binding signal [3] | antibody binding signal [4] | antibody binding signal [5] | antibody binding signal [6] | antibody binding signal [7] | antibody binding signal [8] | antibody binding signal [9] | antibody binding signal [10] | antibody binding signal [11] | antibody binding signal [12]
TPPSGKDKKPATGGA | 4200 | 517 | 3130 | 864 | 41600 | 748 | 353 | 390 | 109 | 192 | 98.1 | 317
GKEKKTATGGTPSQP | 1650 | 257 | 370 | 2830 | 2450 | 2870 | 292 | 83.5 | 132 | 116 | 288 | 85.8
DKKTAAGETPSPPGA | 276 | 230 | 309 | 314 | 371 | 2040 | 141 | 208 | 144 | 501 | 473 | 285
KKPATGGAPSPSGAS | 450 | 664 | 809 | 812 | 340 | 860 | 359 | 861 | 95.1 | 96.5 | 120 | 291
KDNKTATGEAPSPPG | 12900 | 11900 | 16600 | 2300 | 432 | 20100 | 505 | 191 | 200 | 268 | 88.7 | 152
DKKTAAGETPSPSGA | 524 | 226 | 276 | 396 | 391 | 2460 | 159 | 214 | 134 | 500 | 497 | 396
PPSGTENKTAAGETP | 40700 | 39300 | 44200 | 269 | 2630 | 11300 | 1490 | 469 | 259 | 385 | 368 | 449
KAAAGGAPSQPGASS | 244 | 417 | 3430 | 3470 | 373 | 191 | 172 | 106 | 108 | 95.2 | 89.8 | 101
SSTPPSGKDKKAATG | 23700 | 781 | 934 | 238 | 40400 | 757 | 143 | 354 | 133 | 174 | 92.5 | 119
TPPSGTDKKTATGGA | 13000 | 9050 | 25700 | 4630 | 21800 | 2150 | 711 | 176 | 187 | 241 | 450 | 279
DNKTATGGAPSPPGA | 491 | 407 | 547 | 554 | 288 | 724 | 348 | 231 | 382 | 217 | 306 | 198
TDKKPATGEAPSQPG | 41300 | 47700 | 48000 | 363 | 281 | 38200 | 821 | 631 | 327 | 216 | 234 | 141
PPSGTENKAATGEAP | 44400 | 40300 | 46000 | 275 | 3370 | 29300 | 1740 | 396 | 261 | 312 | 214 | 449
KDKKPAAGGTPSPPG | 153 | 198 | 154 | 1350 | 152 | 338 | 117 | 89.6 | 577 | 112 | 75 | 95.2
GTDKKAAAGGAPSPP | 262 | 202 | 255 | 5840 | 722 | 952 | 176 | 236 | 150 | 142 | 127 | 125
ENKTAAGEAPSPSGA | 198 | 993 | 2150 | 196 | 243 | 7690 | 195 | 104 | 182 | 149 | 111 | 125
TDKKPAAGGTPSQSG | 473 | 198 | 456 | 6230 | 315 | 997 | 241 | 773 | 1860 | 174 | 193 | 359
EKKAAAGGAPSQSGA | 649 | 256 | 307 | 5190 | 492 | 528 | 163 | 553 | 303 | 121 | 180 | 545
GTENKAATGGAPSPS | 40600 | 2300 | 3850 | 1620 | 2060 | 3020 | 301 | 512 | 511 | 226 | 170 | 179
KEKKPAAGETPSPSG | 184 | 208 | 226 | 147 | 160 | 876 | 101 | 92.7 | 84.8 | 62.5 | 85 | 665
KDKKTAAGGAPSPSG | 191 | 239 | 238 | 2580 | 320 | 219 | 124 | 112 | 120 | 137 | 101 | 138
SGTDNKTATGGAPSP | 1150 | 723 | 39800 | 755 | 623 | 844 | 341 | 716 | 1400 | 238 | 242 | 313
KENKTATGETPSPSG | 528 | 383 | 1640 | 692 | 263 | 7380 | 188 | 261 | 156 | 175 | 277 | 2740
TEKKPATGEAPSPPG | 47000 | 44600 | 47300 | 415 | 380 | 40500 | 908 | 548 | 402 | 282 | 234 | 495
GKDNKAATGETPSPP | 4470 | 2050 | 18600 | 2420 | 2960 | 11900 | 250 | 327 | 113 | 252 | 141 | 831

From the supplement of paper PMC10441789
